Measurements as given in PubChem BioAssay AID1347417 (National Center for Advancing Translational Sciences (NCATS), 2020).
In all, about 120,000 compounds went through this assay and about 5,300 (4.4%) were called active. The inconclusive results got no clear call from the source; some entries with a clear call stand among them for comparison. Calls follow the shape of the dose curve; as a rule, active = well fitted inhibition curve with a large enough effect; inconclusive = small, poorly fitted or top-dose-only effect; inactive = no such curve, though single readings can be large or run the other way. Where the call is inconclusive, the potency comes from a doubtful curve fit.

Test: qHTS Primary assay for Inhibitors of Plasmodium falciparum Dd2 growth in vitro; also: nearly all actives have a fitted effect of over 65% in size;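 as to activity, negative = inhibition: plate controls were DMSO vehicle for no effect and reference drug for full effect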
Settings: P. falciparum Dd2 growth, SYBR Green, 72 h; activity, negative = inhibition: at 28.9 µM (top of the series) unless noted; series mostly up to 28.9 µM
Procedure, shortened: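 Infected erythrocytes (Dd2, 0.3% parasitemia, 2.5% hematocrit final) are added to compound in RPMI-1640/Albumax II medium, grown 72 h at 37C in low oxygen, then lysed with saponin/Triton-X containing SYBR Green and read by fluorescence.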
Potency is read from the fitted curve at half-maximal effect; tags tell the direction and shape of the fitted curve.

| Compound | activity, negative = inhibition | Potency | outcome |
| --- | --- | --- | --- |
| Cn1nc(NC(=O)Cc2c[nH]c(=O)[nH]c2=O)c2c(N3CCOCC3)cccc21 | inactive: 22% |  |  |
| COCCN1C(=O)[C@@H]2C[C@@H](CN2Cc2ccc3c(c2)OCO3)Oc2ccccc21 |  | inconclusive: 14.1 µM [inhibitor, single point] |  |
| COc1cccc(CN2CCCC3(Cc4ccccc4CNC3=O)C2)n1 (configuration not stated) |  | inconclusive: 10 µM [inhibitor, single point] |  |
| Cc1ccc(C2Cn3cnc(C(=O)N4CCC(C(=O)NCc5ccc(F)cc5)CC4)c3CO2)cc1 (configuration not stated) |  |  | inactive |
| O=C1NCCCCCN(C(=O)c2nccc3ccccc23)[C@H]2CCC[C@@H]12 |  |  | inactive |
| CC(C)N1CCC(OCCCNC(=O)C2CCCCC(=O)N2)CC1 (configuration not stated) | inactive: 14.8% |  |  |
| CCOC(=O)C1CCN(CC(=O)N2CCCc3c2c(=O)oc2ccc(OCc4ccccc4)cc32)CC1 |  | inconclusive: 8.91 µM [inhibitor, single point] |  |
| O[C@@H]1C[C@@H](c2nc(-c3ccc4c(c3)OCO4)no2)N(Cc2ccc(-c3ccccn3)cc2)C1 |  | inconclusive: 3.98 µM [inhibitor, single point] |  |
| O=C(CCC1CCN(C(=O)c2ccccc2)CC1)Nc1ccc(F)cc1F | inactive: -21.6% |  |  |
| COc1ccc(OCCCCn2c(C3CC(=O)N(c4cccc(Cl)c4)C3)nc3ccccc32)cc1 (configuration not stated) |  | inconclusive: 5.62 µM [inhibitor, partial curve, poor fit] |  |
| COc1ccc(-c2cc(C(=O)N3C[C@@H](CN(C)C)[C@@H](CO)C3)[nH]n2)cc1 | inactive: 4.23% |  |  |
| CC(C)c1noc(-c2cn(C3CCCN(C(=O)c4cccn4C)C3)nn2)n1 (configuration not stated) |  |  | inactive |
| CC(C)CCNC(=O)c1ccc2c(c1)NC(=O)C(CS(=O)(=O)Cc1cccc(Br)c1)N2 (configuration not stated) | inactive: -3.92% |  |  |
| Cc1ccc(CNC(=O)[C@@]23CCCC[C@H]2N(C)C(=O)CC3)cc1 |  | inconclusive: 10 µM [inhibitor, partial curve, poor fit] |  |
| CNC(=O)C1CCC(Cn2c(=O)c3sccc3n(Cc3ccccc3)c2=O)CC1 (configuration not stated) |  | inconclusive: 0.708 µM [inhibitor, partial curve, poor fit] |  |
| COc1cc(OC)c(NC(=O)C(C)n2c(=O)cc(-c3ccccc3)c3c(C)nn(C)c32)cc1Cl (configuration not stated) |  | active: 10 µM |  |
| O=C(C1CCCN(C2CCN(Cc3ccc4c(c3)OCO4)CC2)C1)N1CCOCC1 (configuration not stated) | inactive: -6.88% |  |  |
| CNC(=O)C1(N2CCC[C@H]2C(=O)NCc2ccccc2)CCCCC1 |  | inconclusive: 2.51 µM [inhibitor, full curve, poor fit] |  |
| CCc1ccc(NC(=O)N2CC=C(c3c[nH]c4ccccc34)CC2)cc1 |  |  | inactive |
| COc1cccc(N2C(=O)NC(=NC3CCCC3)C23CCN(Cc2ccc(N(C)C)cc2)C3)c1 (configuration not stated) |  | inconclusive: 11.2 µM [inhibitor, partial curve] |  |
| CN(C)c1ccc(CC(=O)N2CCN(Cc3ccccc3)CC(O)C2)cc1 (configuration not stated) |  | inconclusive: 17.8 µM [inhibitor, single point] |  |

| Compound | activity, negative = inhibition | Potency | outcome |
| --- | --- | --- | --- |
| O=C(NCc1csc2ccc(Cl)cc12)C1CC2(CCNCC2)CN1 (configuration not stated) | inactive: 0.995% |  |  |
| Cc1cc(C(=O)N2C[C@@H](CO)[C@H](c3ccccn3)C2)n(C)n1 | inactive: 24.6% |  |  |
| COc1ccc(Nc2cc(C(=O)NCCCN(C)Cc3ccccc3)c3ccccc3n2)cc1OC |  | inconclusive: 7.08 µM [inhibitor, partial curve, poor fit] |  |
| CC1(CNc2ccccc2)COc2ccc(C(=O)NCCN3CCOCC3)cc2N1 (configuration not stated) |  | inconclusive: 6.31 µM [inhibitor, partial curve, poor fit] |  |
| CCOc1ccc(CC(=O)Nc2c(C(=O)c3ccc(Cl)cc3)oc3ccccc23)cc1OCC |  | inconclusive: 17.8 µM [inhibitor, single point] |  |
| Cc1c(-c2ccccc2F)[nH]c2ccc(CNC(=O)CN3CC(=O)NC3=O)cc12 |  | inconclusive: 11.2 µM [inhibitor, single point] |  |
| COC[C@H]1CCCN1Cc1nc(C2(O)CCN(Cc3ccc(OC)cc3)CC2)cs1 |  |  | inactive [at 44.1 µM] |
| Cc1cccc(S(=O)(=O)c2cn(Cc3ccccc3)c3cc(N4CCC(C)CC4)c(F)cc3c2=O)c1 |  | active: 10 µM |  |
| COc1ccc(CC(=O)Nc2ccc([C@@H](O)[C@H]3COCC(=O)N3Cc3ccc(C(F)(F)F)cc3)cc2)cc1 |  | inconclusive: 4.47 µM [inhibitor, partial curve, poor fit] |  |
| CCC1=Nc2cc(C(=O)NCCc3ccccc3)ccc2Sc2ccc(Cl)cc21 |  | inconclusive: 17.8 µM [inhibitor, single point] |  |
| CC(C)Oc1ccc(C(=O)NC2CCN(c3cnn(CC4CC4)c(=O)c3)CC2)cc1 |  | inconclusive: 14.1 µM [inhibitor, partial curve, poor fit] |  |
| COc1ccccc1-n1cc(C(=O)NC(Cc2ccco2)C(=O)O)cn1 (configuration not stated) | inactive: -9.31% |  |  |
| CCC(C)NC(=O)C1COC2(CCN(C(=O)C3CCC3)CC2)N1C(=O)c1ccc(OC)cc1 (configuration not stated) | inactive: -27% |  |  |
| Cc1cn2c(=O)cc(COC(=O)c3cccc(NC(=O)C(C)Oc4ccccc4)c3)nc2s1 (configuration not stated) |  |  | inactive |
| CCOc1ccccc1NC(=O)c1c(NC(=O)C(C)Oc2cccc(Cl)c2)sc2c1CCCCC2 (configuration not stated) |  | inconclusive: 3.55 µM [inhibitor, partial curve, poor fit] |  |
| CN(C(=O)CCN1Cc2ccccc2C1=O)C1CCCN(CCc2ccccc2)C1 (configuration not stated) |  | inconclusive: 6.31 µM [inhibitor, partial curve, poor fit] |  |
| Cc1nc2scc(CC(=O)NCCC(C)C)n2c(=O)c1-c1cc(C)n(-c2ccccc2F)n1 |  | inconclusive: 10 µM [inhibitor, single point] |  |
| O=[S+]([O-])(c1ccccc1)N1CCNc2cnc(Nc3cccc(F)c3)nc2C1 |  | inconclusive: 15.8 µM [inhibitor, single point] |  |
| COc1cc2c(cc1OCc1ccccc1)N(C(=O)COc1ccccc1)CC21CCN(C)CC1 |  | inconclusive: 2.82 µM [inhibitor, partial curve, poor fit] |  |
| CN(Cc1ccccc1)Cc1cc(C[C@H]2CNCC[C@H]2CC(=O)NC2CCCCC2)no1 |  |  | inactive |
| c1ccc(-c2ccc(CN[C@H]3CO[C@H]4[C@@H]3OC[C@@H]4n3cc(CC4CCCCC4)nn3)cc2)cc1 |  | inconclusive: 7.08 µM [inhibitor, partial curve] |  |
